From the supplement of paper PMC10126150
Values marked as one replicate rest on one cluster of the flow cell; about a third of the high ones do not repeat.
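Further: ATP exposure 15 min at 22 °C before imaging.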

Each sequence was assayed on ATP (assay: switch fluorescence ratio, 500 uM ATP over buffer (Cy3 cluster intensity, sum of 5 cycles each) (fold (ratio)); higher = stronger signal-on switching upon ATP binding; sequences stand for … in TCGTCGGCAGCGTCAGATGTGTATAAGAGACAGTTTTTTTTTTTTTTTTTTTTTTTTT…TC). Conditions: aptamer strand: ATP DNA aptamer (quencher-CACCTGGGGGAGTATTGCGGAGGAAGG + anchor), 100 nM annealed; ATP concentration: 500 uM; one replicate.
How it was run: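 Cy3-labelled switching-strand clusters on a modified Illumina MiSeq flow-cell were annealed to 100 nM quencher-labelled ATP aptamer and imaged first in selection buffer, then after 15 min with 500 uM ATP at 22 °C. NaOH stripping and re-annealing separated each of five buffer/ATP cycles, and clusters outside 100-1000 RFU were excluded. The fluorescence ratio sums target-cycle Cy3 intensity over buffer-cycle Cy3 intensity per cluster and averages it per switch-domain sequence.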
AGAGCTACTT showed a switch fluorescence ratio of 1. AGAGCTCGGG gave a switch fluorescence ratio of 1.08. With AGAGCTGGAG the switch fluorescence ratio was 0.969. Sequence AGAGCTTAAG has a switch fluorescence ratio of 0.975. AGAGGACTGT was tested, and the switch fluorescence ratio was 0.998. In the case of AGAGGAGGAC, the switch fluorescence ratio is reported as 0.923. AGAGGATGAC showed a switch fluorescence ratio of 1.04. Sequence AGAGGCTTGT has a switch fluorescence ratio of 1. Work on AGAGGGTG yielded a switch fluorescence ratio of 1.08. AGAGGTTTAC was tested, and the switch fluorescence ratio was 1.02. AGAGGTTTGA showed a switch fluorescence ratio of 0.982. Sequence AGAGTAGACC has a switch fluorescence ratio of 0.997. AGAGTCCAAC showed a switch fluorescence ratio of 1. AGAGTCCAAT gave a switch fluorescence ratio of 1. AGAGTGACGG gave a switch fluorescence ratio of 1.01. Sequence AGAGTGATCA has a switch fluorescence ratio of 1.02. AGAGTGGCTA showed a switch fluorescence ratio of 1.01. AGAGTTACAC showed a switch fluorescence ratio of 1.14. Sequence AGAGTTTTCA has a switch fluorescence ratio of 0.994. In the case of AGATAACGTT, the switch fluorescence ratio is reported as 1.01. AGATACAGTG was tested, and the switch fluorescence ratio was 1.01. Sequence AGATAGAGGA has a switch fluorescence ratio of 0.949. Sequence AGATATATAT has a switch fluorescence ratio of 1.02. With AGATATCTAT the switch fluorescence ratio was 0.991. AGATCAGCAT showed a switch fluorescence ratio of 1.03. Sequence AGATCCGGCA has a switch fluorescence ratio of 0.996. Work on AGATCCGTCC yielded a switch fluorescence ratio of 1.18. AGATCGAAAC gave a switch fluorescence ratio of 1.03. For AGATCGCATT, the switch fluorescence ratio was 1.11. AGATCGGTAC gave a switch fluorescence ratio of 1.02. For AGATCGTTAT, the switch fluorescence ratio was 0.979. For AGATCTGCGG, the switch fluorescence ratio was 0.957. AGATCTTTCT showed a switch fluorescence ratio of 1.01. For AGATGAAGGT, the switch fluorescence ratio was 1.02. In the case of AGATGATTTT, the switch fluorescence ratio is reported as 0.978. In the case of AGATGCAAGC, the switch fluorescence ratio is reported as 1.1. With AGATGCCGTG the switch fluorescence ratio was 1.02. AGATGGGAGA gave a switch fluorescence ratio of 0.99. Sequence AGATGGGCAA has a switch fluorescence ratio of 0.967. Work on AGATGGTTAC yielded a switch fluorescence ratio of 1.04. With AGATTAACCG the switch fluorescence ratio was 1.07. In the case of AGATTAAGAC, the switch fluorescence ratio is reported as 1.01. With AGATTAATTA the switch fluorescence ratio was 1.04. For AGATTAATTC, the switch fluorescence ratio was 1.01. Sequence AGATTACTAA has a switch fluorescence ratio of 1.07. With AGATTATCGG the switch fluorescence ratio was 0.999. AGATTCGTGA showed a switch fluorescence ratio of 0.971. AGATTGAGAG showed a switch fluorescence ratio of 0.995. AGATTGAGCA showed a switch fluorescence ratio of 1.01. Sequence AGATTGCGGC has a switch fluorescence ratio of 0.999. With AGATTTACAT the switch fluorescence ratio was 1.02. AGATTTCCGG showed a switch fluorescence ratio of 1. Work on AGCAAATGGC yielded a switch fluorescence ratio of 1.15. Sequence AGCAACGGGC has a switch fluorescence ratio of 1.03. AGCAACGGGT was tested, and the switch fluorescence ratio was 0.954. For AGCAAGAAAT, the switch fluorescence ratio was 0.988. Sequence AGCAAGAATG has a switch fluorescence ratio of 1.07. For AGCAAGCGCT, the switch fluorescence ratio was 0.997. Sequence AGCAAGCGGC has a switch fluorescence ratio of 1.02. AGCAAGTTTT was tested, and the switch fluorescence ratio was 0.99. Work on AGCACGGCAA yielded a switch fluorescence ratio of 1.21. AGCACGGCAT gave a switch fluorescence ratio of 1.06. In the case of AGCACGGCCC, the switch fluorescence ratio is reported as 1.01. AGCAGCCCCC gave a switch fluorescence ratio of 1.21. AGCAGCGATG showed a switch fluorescence ratio of 0.964. AGCAGGCTAG showed a switch fluorescence ratio of 1.01. In the case of AGCAGTCATA, the switch fluorescence ratio is reported as 0.995. With AGCAGTGGTC the switch fluorescence ratio was 1.05. Work on AGCATCCTTT yielded a switch fluorescence ratio of 1.01. AGCATGCCGC was tested, and the switch fluorescence ratio was 0.954. AGCCAAAAGA showed a switch fluorescence ratio of 1.03. AGCCAGGGAA showed a switch fluorescence ratio of 1.03. Work on AGCCAGTGTT yielded a switch fluorescence ratio of 0.968. AGCCATTATG was tested, and the switch fluorescence ratio was 1. Work on AGCCCAACAC yielded a switch fluorescence ratio of 1.08. For AGCCCCTCAA, the switch fluorescence ratio was 1.05. With AGCCCGCCTG the switch fluorescence ratio was 0.98. For AGCCCGCGTT, the switch fluorescence ratio was 1.03. In the case of AGCCGAATAT, the switch fluorescence ratio is reported as 0.991. Sequence AGCCGATAAA has a switch fluorescence ratio of 1. In the case of AGCCGCGACC, the switch fluorescence ratio is reported as 2.19. In the case of AGCCGCGGGT, the switch fluorescence ratio is reported as 1.07. Sequence AGCCGGTCGA has a switch fluorescence ratio of 1.01. With AGCCGGTGT the switch fluorescence ratio was 1.02. Sequence AGCCGGTTGT has a switch fluorescence ratio of 0.974.
